# Out of some 360,000 compounds screened, about 16,000 (4.4%) were called active. Inconclusive means that the source gave no clear call. Such entries were picked first, then a sample of the others. Calls come from the whole dose curve; as a rule, active = well fitted inhibition curve with a large enough effect; inconclusive = small, poorly fitted or top-dose-only effect; inactive = no such curve, though single readings can be large or run the other way. Potencies of inconclusive entries are doubtful fits and often do not repeat.
# Target: Bromodomain adjacent to zinc finger domain protein 2B (Homo sapiens) (UniProt Q9UIF8)
# Experiment: qHTS Assay for Inhibitors of BAZ2B; note: nearly all actives have a fitted effect of over 60% in size
# Conditions: AlphaScreen BAZ2B-H3K14Ac peptide displacement; activity change, negative = inhibition: at 114 µM (top of the series)
# In short: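 In this displacement format the biotinylated H3(5-23) peptide acetylated at Lys14 serves as ligand at 50 nM, with BAZ2B at 50 nM in PBS pH 7.4 containing 0.01% Tween-20. Donor and acceptor beads are 10 ug/mL final.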
# % is set by controls: 0 for no effect and ±100 for the full control effect; potency is the fitted concentration of half-maximal effect; tags give direction and shape of the fitted curve.
# Sequence of UniProt Q9UIF8 (Q9UIF8 whole entry, looked up, the tested form may be a part): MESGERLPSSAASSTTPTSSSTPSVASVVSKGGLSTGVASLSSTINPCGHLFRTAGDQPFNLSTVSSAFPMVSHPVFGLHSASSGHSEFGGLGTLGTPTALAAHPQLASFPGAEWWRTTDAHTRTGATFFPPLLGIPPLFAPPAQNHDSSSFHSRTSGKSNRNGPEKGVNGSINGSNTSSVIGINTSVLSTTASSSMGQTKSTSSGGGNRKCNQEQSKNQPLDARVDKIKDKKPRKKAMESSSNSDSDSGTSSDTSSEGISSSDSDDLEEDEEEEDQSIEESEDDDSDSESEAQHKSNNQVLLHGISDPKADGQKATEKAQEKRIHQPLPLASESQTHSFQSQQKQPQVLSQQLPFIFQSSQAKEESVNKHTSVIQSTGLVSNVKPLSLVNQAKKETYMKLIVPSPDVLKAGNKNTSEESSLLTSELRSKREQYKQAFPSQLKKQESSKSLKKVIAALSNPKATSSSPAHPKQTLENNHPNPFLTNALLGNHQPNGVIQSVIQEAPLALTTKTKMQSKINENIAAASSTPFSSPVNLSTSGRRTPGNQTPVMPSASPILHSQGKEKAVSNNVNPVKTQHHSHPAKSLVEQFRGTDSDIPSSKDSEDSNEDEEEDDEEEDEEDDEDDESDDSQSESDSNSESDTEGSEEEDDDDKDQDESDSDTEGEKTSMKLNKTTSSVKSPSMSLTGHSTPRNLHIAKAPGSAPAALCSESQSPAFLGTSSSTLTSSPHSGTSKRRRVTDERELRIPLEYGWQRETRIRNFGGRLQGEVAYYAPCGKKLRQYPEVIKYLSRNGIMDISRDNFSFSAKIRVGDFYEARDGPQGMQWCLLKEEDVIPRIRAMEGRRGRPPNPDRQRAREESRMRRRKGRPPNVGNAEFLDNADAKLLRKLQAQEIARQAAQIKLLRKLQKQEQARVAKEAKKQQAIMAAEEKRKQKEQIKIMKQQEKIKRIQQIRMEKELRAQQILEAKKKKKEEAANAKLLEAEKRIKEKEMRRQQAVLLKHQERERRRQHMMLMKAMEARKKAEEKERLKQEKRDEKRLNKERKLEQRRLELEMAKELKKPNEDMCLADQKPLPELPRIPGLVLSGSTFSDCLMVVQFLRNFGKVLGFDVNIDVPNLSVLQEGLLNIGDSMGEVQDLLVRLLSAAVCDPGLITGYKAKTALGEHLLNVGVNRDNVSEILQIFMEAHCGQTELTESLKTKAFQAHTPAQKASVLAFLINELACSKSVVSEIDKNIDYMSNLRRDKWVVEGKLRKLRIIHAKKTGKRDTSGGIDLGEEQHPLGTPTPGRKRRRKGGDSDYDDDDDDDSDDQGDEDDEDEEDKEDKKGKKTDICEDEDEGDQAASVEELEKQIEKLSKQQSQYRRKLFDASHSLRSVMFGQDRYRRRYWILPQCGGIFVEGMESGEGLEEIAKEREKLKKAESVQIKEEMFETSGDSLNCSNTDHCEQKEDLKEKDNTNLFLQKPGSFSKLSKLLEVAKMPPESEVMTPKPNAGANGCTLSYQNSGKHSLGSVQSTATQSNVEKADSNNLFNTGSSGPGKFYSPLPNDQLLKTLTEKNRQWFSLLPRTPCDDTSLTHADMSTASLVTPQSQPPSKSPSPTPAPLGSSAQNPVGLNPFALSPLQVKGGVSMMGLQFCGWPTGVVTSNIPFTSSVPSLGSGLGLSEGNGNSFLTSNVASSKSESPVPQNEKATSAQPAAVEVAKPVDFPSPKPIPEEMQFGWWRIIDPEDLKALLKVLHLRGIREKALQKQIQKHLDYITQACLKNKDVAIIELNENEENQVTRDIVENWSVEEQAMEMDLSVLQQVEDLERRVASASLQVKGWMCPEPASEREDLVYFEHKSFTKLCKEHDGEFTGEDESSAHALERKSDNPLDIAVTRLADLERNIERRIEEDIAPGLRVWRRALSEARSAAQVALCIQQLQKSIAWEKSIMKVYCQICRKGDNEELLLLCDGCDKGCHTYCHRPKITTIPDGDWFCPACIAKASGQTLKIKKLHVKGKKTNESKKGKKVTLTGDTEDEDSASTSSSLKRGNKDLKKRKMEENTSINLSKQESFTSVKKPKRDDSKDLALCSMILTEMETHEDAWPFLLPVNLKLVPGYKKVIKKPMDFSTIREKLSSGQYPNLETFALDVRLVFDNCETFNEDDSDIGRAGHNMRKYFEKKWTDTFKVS
Structure (SMILES),Potency,"activity change, negative = inhibition"
CCc1ccccc1NC(=O)Cn1c(=O)n(-c2cccc(C)c2)c(=O)c2c1c1cc(OC)ccc1n2C,"inconclusive: 89.1 µM [inhibitor, single point]",–
COc1ccc(CN2C(=O)c3cccnc3C2=O)cc1S(=O)(=O)N(C)c1ccc(C)cc1,"inconclusive: 39.8 µM [inhibitor, partial curve]",–
O=C(c1cccnc1)n1nc(-c2ccco2)nc1NCc1cccs1,"inconclusive: 89.1 µM [inhibitor, single point]",–
O=C(NC(=S)N(Cc1ccccc1)Cc1ccccc1)c1ccccc1F,"inconclusive: 22.4 µM [inhibitor, full curve]",–
COc1cc(CN2CCC(C(=O)NC3CCCC3)CC2)cc(Br)c1O,active: 50.1 µM,–
CCOc1ccc2nc(SCC3CC3(Cl)Cl)[nH]c2c1 (centres undefined),–,inactive: -19.1%
Cc1ccccc1C(=O)Nc1cc2c(cc1N1CCCCC1)n(C)c(=O)n2C,active: 25.1 µM,–
COc1ccc(C)cc1NC(=O)C(NCC(O)c1ccccc1)c1ccccc1 (centres undefined),active: 22.4 µM,–
COc1ccc(NC(=O)COc2cc(O)c3c(c2)OC(C)(C)CC3=O)cc1,"inconclusive: 25.1 µM [inhibitor, full curve, poor fit]",–
Cc1ccc(NC2CCCN(C(=O)c3cnsn3)C2)cc1C (centres undefined),"inconclusive: 35.5 µM [inhibitor, full curve]",–
COc1ccc(CNCc2cccn2C)cc1,"inconclusive: 89.1 µM [inhibitor, single point]",–
CCOC(=O)c1ccc(N2C(=O)CC(SCC(N)C(=O)OCC)C2=O)cc1 (centres undefined),"inconclusive: 79.4 µM [inhibitor, single point]",–
C/C(=C\C(=O)c1cccnc1)Nc1ccc(C)c(C)c1,active: 50.1 µM,–
C/C(=N\NC(=O)c1ccccc1)c1cc2cc([N+](=O)[O-])ccc2oc1=O,"inconclusive: 89.1 µM [inhibitor, single point]",–
CN1C(=O)/C(=C/c2ccccc2OCc2cccc(F)c2)N(C)C1=S,"inconclusive: 6.31 µM [inhibitor, single point]",–
Cn1ccnc1Sc1ccc(C=O)cc1[N+](=O)[O-],–,inactive: -3.4%
NC(=O)c1ccc(Nc2nnc(-c3ccc(O)cc3)c3ccccc23)cc1,"inconclusive: 50.1 µM [inhibitor, partial curve]",–
COc1ccc(N2CCN(C(=O)Cn3c(=O)c4cccn4c4cccnc43)CC2)cc1,"inconclusive: 50.1 µM [inhibitor, partial curve]",–
COc1cc2c(cc1OC)CN(C(=O)c1cc(S(=O)(=O)N3CCOCC3)ccc1Cl)CC2,–,inactive: -13.9%
